The whole screen tested about 390,000 compounds, of which about 17,000 (4.4%) were called active. Inconclusive means that the source gave no clear call. Such entries were picked first, then a sample of the others. Calls come from the whole dose curve; as a rule, active = well fitted inhibition curve with a large enough effect; inconclusive = small, poorly fitted or top-dose-only effect; inactive = no such curve, though single readings can be large or run the other way. Potencies beside an inconclusive call are fits to weak or partial responses and may not hold up.
What follows are compounds tested against Lysine-specific demethylase 4A (Homo sapiens) (UniProt O75164) (assay: qHTS Assay for Inhibitors of JMJD2A-Tudor Domain). Settings: AlphaScreen JMJD2A-Tudor / H3K4me3 peptide binding; series mostly up to 114 µM.
Note: nearly all actives have a fitted effect of over 50% in size.
Potency is the fitted concentration of half-maximal effect; tags give direction and shape of the fitted curve.

Chain of UniProt O75164 (O75164 whole entry, looked up, the tested form may be a part): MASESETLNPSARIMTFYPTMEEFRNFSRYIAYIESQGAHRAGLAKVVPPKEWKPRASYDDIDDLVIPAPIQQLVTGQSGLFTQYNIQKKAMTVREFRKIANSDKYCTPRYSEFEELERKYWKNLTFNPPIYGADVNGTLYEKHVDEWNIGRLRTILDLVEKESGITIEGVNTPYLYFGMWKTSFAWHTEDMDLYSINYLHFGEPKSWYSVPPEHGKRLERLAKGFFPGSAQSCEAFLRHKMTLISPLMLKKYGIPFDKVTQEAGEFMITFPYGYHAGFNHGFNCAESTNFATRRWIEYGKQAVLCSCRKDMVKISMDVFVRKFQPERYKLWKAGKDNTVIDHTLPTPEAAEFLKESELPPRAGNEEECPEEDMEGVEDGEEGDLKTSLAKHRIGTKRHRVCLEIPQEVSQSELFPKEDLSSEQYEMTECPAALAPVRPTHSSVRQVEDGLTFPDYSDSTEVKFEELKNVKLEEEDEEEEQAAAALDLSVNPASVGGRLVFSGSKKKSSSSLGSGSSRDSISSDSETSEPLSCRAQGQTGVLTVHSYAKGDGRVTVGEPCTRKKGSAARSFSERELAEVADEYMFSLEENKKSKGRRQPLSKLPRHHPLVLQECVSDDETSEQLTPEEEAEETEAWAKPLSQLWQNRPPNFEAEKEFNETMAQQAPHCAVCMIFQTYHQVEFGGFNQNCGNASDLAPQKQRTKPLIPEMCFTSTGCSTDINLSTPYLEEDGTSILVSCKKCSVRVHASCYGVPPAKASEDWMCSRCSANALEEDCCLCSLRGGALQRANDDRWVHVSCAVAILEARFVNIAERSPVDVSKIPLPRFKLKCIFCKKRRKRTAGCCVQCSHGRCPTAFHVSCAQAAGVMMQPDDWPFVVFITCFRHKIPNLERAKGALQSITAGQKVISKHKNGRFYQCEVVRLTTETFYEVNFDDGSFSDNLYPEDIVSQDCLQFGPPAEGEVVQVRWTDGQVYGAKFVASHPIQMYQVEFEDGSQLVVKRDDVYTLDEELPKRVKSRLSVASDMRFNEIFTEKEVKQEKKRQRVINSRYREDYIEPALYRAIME

SMILES | Potency
CCOC(=O)/C(=N\Nc1ncnc2ccccc12)c1ccc(C)cc1 | inconclusive: 44.7 µM [inhibitor, partial curve]
COC(=O)c1c(NC(=O)Cc2cccs2)sc2c1CCCC2 | inconclusive: 31.6 µM [inhibitor, full curve]
Cc1cc(C)nc(Nc2ccc(N3CCCC3)cc2)n1 | active: 35.5 µM
Clc1ccc(C[n+]2cc(-c3ccccc3)n3c2CCCCC3)c(Cl)c1 | inactive
Cc1cccc(C)c1NCc1n[nH]c(=S)n1-c1ccccc1 | active: 39.8 µM
S=c1[nH]ncn1NCc1cccc(Br)c1 | active: 15.8 µM
Cc1ccc(/C=C/C(=O)Nc2cccnc2)o1 | inconclusive: 89.1 µM [inhibitor, single point]
CCN(CC)C1Oc2cc3c(cc2C(c2cc(OC)c(OC)c(OC)c2)C1C)OCO3 (configuration not stated) | inconclusive: 17.8 µM [inhibitor, full curve]
COc1ccc(/C=N\N2CCN(Cc3ccccc3Cl)CC2)cc1 | inconclusive: 50.1 µM [inhibitor, partial curve]
Cc1ccc(N2CC(C(=O)NCCS(=O)(=O)N3CCN(c4ccccc4)CC3)CC2=O)cc1C (configuration not stated) | inactive
Cc1ccc(C)c(NC(=O)N(C)CCc2c(C)nn(C)c2C)c1 | inactive
O=c1[nH]cc(C(F)(F)F)cc1NS(=O)(=O)c1ccccc1[N+](=O)[O-] | inconclusive: 15.8 µM [inhibitor, partial curve]
COCC(=O)Nc1ncc(S(=O)(=O)c2ccc([N+](=O)[O-])cc2)s1 | inconclusive: 20 µM [inhibitor, full curve]
Cc1ccc(C(=O)Nc2nc3nc(C)cc(=O)n3[nH]2)cc1 | inconclusive: 63.1 µM [inhibitor, partial curve, poor fit]
CCN(C(=O)CSc1ncn[nH]1)c1cccc2ccccc12 | active: 3.16 µM
COc1ccccc1N(CC(=O)NC(C)(C)C)S(=O)(=O)c1cccs1 | active: 56.2 µM
CCN(CC)CCNc1ncnc2c1cnn2-c1cc(Cl)ccc1C | inactive
O=C(Oc1cc(Cl)ccc1Cl)c1ccc(N2CCOCC2)c([N+](=O)[O-])c1 | active: 35.5 µM
O=C(COC(=O)c1ccc[nH]c1=O)NC1CCCc2ccccc21 (configuration not stated) | inconclusive: 22.4 µM [inhibitor, single point]
CCC1CCCCN1C(=O)COC(=O)c1cc(Br)ccc1Cl (configuration not stated) | inactive
CCOC(=O)C1=C(N)Oc2ccc3ccccc3c2C1c1cccc(O)c1 (configuration not stated) | inconclusive: 56.2 µM [inhibitor, partial curve, poor fit]
Cc1sc2ncnc(N/N=C/c3cccc(O)c3)c2c1C | inconclusive: 50.1 µM [inhibitor, partial curve]

Source: PubChem BioAssay AID504339 (National Center for Advancing Translational Sciences (NCATS), 2011)
